Test results: the supplement of paper PMC12217912
The list shows a part of the results. The full chains were built here from the parent and the listed change. Values near 0.05 are background.

B1: TEV protease; numbered along this chain (parent)
chain: MGESLFKGPRDYNPISSSICHLTNESDGHTTSLYGIGFGPFIITNKHLFRRNNGTLVVQSLHGVFKVKDTTTLQQHLVDGRDMIIIRMPKDFPPFPQKLKFREPQREERICLVTTNFQTKSMSSMVSDTSCTFPSGDGIFWKHWIQTKDGQCGSPLVSTRDGFIVGIHSASNFTNTNNYFTSVPKNFMELLTNQEAQQWVSGWRLNADSVLWGGHKVFMVKPEEPFQPVKEATQL

Variants of: B1
Experiment: raw area under fraction-flipped curve 0-4 h after induction (AUC4h, not background-subtracted), DNA-recorder readout of cleavage of the substrate (dimensionless); higher = more cleavage of the substrate by the protease variant
Conditions: temperature: 34 °C; time window: 0-4 h after rhamnose induction
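Also: Bxb1 expression induced with 0.2% (w/v) L-rhamnose at OD600 near 0.5, cultures sampled hourly, flipped fraction per protease–substrate barcode pair counted by paired-end Illumina sequencing.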

Variant	area with substrate ENLCFQS	area with substrate ENLDFQS	area with substrate ENLEFQS	area with substrate ENLFFQS	area with substrate ENLHFQS	area with substrate ENLIFQS	area with substrate ENLKFQS	area with substrate ENLNFQS	area with substrate ENLPFQS	area with substrate ENLQFQS	area with substrate ENLRFQS	area with substrate ENLSFQS	area with substrate ENLVFQS	area with substrate ENLLFQS	area with substrate ENLTFQS	area with substrate ENLWFQS	area with substrate ENLGFQS	area with substrate ENLMFQS
MGESLFKGPRDYNPISSSICHLTNESDGHTTSLYGIGFGPFIITNKHLFRRNNGTLVVQSLHGVFKVKDTTTLQQHLVDGRDTIIIRMPKDFPPFPQKLKFREPQREERICLVTTNFQTKSMSSMVSDTSCTFPSGDGIFWKHWIQTKDGQCGSPLVSTRDGFIVGIHSASNFTNTNNYFTSVPKNFMELLTNQEAQQWVSGWRLNADSVLWGGHKVFMVKPEEPFQPVKEATQL [M83T]	0.0748	0.0666	0.0627	0.0666	0.0493	0.0616	0.0648	0.0614	0.0621	0.0464	0.0311	0.0772	0.0607	–	–	–	–	–
MGESLFKGPRDYNPISSSICHLTNESDGHTTSLYGIGFGPFIITNKHLFRRNNGTLVVQSLHGVFKVKDTTTLQQHLVDGRDWIIIRMPKDFPPFPQKLKFREPQREERICLVTTNFQTKSMSSMVSDTSCTFPSGDGIFWKHWIQTKDGQCGSPLVSTRDGFIVGIHSASNFTNTNNYFTSVPKNFMELLTNQEAQQWVSGWRLNADSVLWGGHKVFMVKPEEPFQPVKEATQL [M83W]	0.044	0.0691	0.0635	0.0672	0.0638	–	0.0526	–	0.103	0.0681	–	0.0614	0.0722	–	–	–	–	–
MGESLFKGPRDYNPISSSICHLTNESDGHTTSLYGIGFGPFIITNKHLFRRNNGTLVVQSLHGVFKVKDTTTLQQHLVDGRDMIIIRMPKDFPPFPQKLLFREPQREERICLVTTNFQTKSMSSMVSDTSCTFPSGDGIFWKHWIQTKDGQCGSPLVSTRDGFIVGIHSASNFTNTNNYFTSVPKNFMELLTNQEAQQWVSGWRLNADSVLWGGHKVFMVKPEEPFQPVKEATQL [K100L]	0.0548	0.0652	0.0016	0.0573	0.0817	–	0.0772	0.048	0.0468	–	–	–	–	0.102	–	–	–	–
MGESLFKGPRDYNPISSSICHLTNESDGHTTSLYGIGFGPFIITNKHLFRRNNGTLVVQSLHGVFKVKDTTTLQQHLVDGRDMIIIRMPKDFPPFPQKLRFREPQREERICLVTTNFQTKSMSSMVSDTSCTFPSGDGIFWKHWIQTKDGQCGSPLVSTRDGFIVGIHSASNFTNTNNYFTSVPKNFMELLTNQEAQQWVSGWRLNADSVLWGGHKVFMVKPEEPFQPVKEATQL [K100R]	0.084	–	–	0.0992	0.0879	0.0803	–	0.0694	–	0.0608	–	–	–	–	0.0923	0.0639	–	–
MGESLFKGPRDYNPISSSICHLTNESDGHTTSLYGIGFGPFIITNKHLFRRNNGTLVVQSLHGVFKVKDTTTLQQHLVDGRDMIIIRMPKDFPPFPQKLKFRAPQREERICLVTTNFQTKSMSSMVSDTSCTFPSGDGIFWKHWIQTKDGQCGSPLVSTRDGFIVGIHSASNFTNTNNYFTSVPKNFMELLTNQEAQQWVSGWRLNADSVLWGGHKVFMVKPEEPFQPVKEATQL [E103A]	0.0657	0.0564	0.0622	–	0.0626	0.11	0.0762	0.0617	0.0567	–	–	0.0548	0.0841	–	–	–	–	–
MGESLFKGPRDYNPISSSICHLTNESDGHTTSLYGIGFGPFIITNKHLFRRNNGTLVVQSLHGVFKVKDTTTLQQHLVDGRDMIIIRMPKDFPPFPQKLKFREPQREERITLVTTNFQTKSMSSMVSDTSCTFPSGDGIFWKHWIQTKDGQCGSPLVSTRDGFIVGIHSASNFTNTNNYFTSVPKNFMELLTNQEAQQWVSGWRLNADSVLWGGHKVFMVKPEEPFQPVKEATQL [C111T]	0.0681	0.059	0.0985	0.0923	0.0761	0.0926	–	0.0665	0.0673	–	0.0662	0.061	–	0.067	–	0.0708	0.0803	–
MGESLFKGPRDYNPISSSICHLTNESDGHTTSLYGIGFGPFIITNKHLFRRNNGTLVVQSLHGVFKVKDTTTLQQHLVDGRDMIIIRMPKDFPPFPQKLKFREPQREERICLVTTNFQTKSQSSMVSDTSCTFPSGDGIFWKHWIQTKDGQCGSPLVSTRDGFIVGIHSASNFTNTNNYFTSVPKNFMELLTNQEAQQWVSGWRLNADSVLWGGHKVFMVKPEEPFQPVKEATQL [M122Q]	0.0739	0.0764	0.0807	0.0865	0.0654	–	–	0.0629	0.0749	–	0.0581	0.0761	0.0907	–	0.078	0.0671	0.0521	0.0849
MGESLFKGPRDYNPISSSICHLTNESDGHTTSLYGIGFGPFIITNKHLFRRNNGTLVVQSLHGVFKVKDTTTLQQHLVDGRDMIIIRMPKDFPPFPQKLKFREPQREERICLVTTNFQTKSMASMVSDTSCTFPSGDGIFWKHWIQTKDGQCGSPLVSTRDGFIVGIHSASNFTNTNNYFTSVPKNFMELLTNQEAQQWVSGWRLNADSVLWGGHKVFMVKPEEPFQPVKEATQL [S123A]	0.0608	0.0549	0.078	0.078	–	0.0938	0.0797	0.0381	–	–	0.0809	0.0733	–	0.0897	0.0705	0.0768	0.0407	–
MGESLFKGPRDYNPISSSICHLTNESDGHTTSLYGIGFGPFIITNKHLFRRNNGTLVVQSLHGVFKVKDTTTLQQHLVDGRDMIIIRMPKDFPPFPQKLKFREPQREERICLVTTNFQTKSMKSMVSDTSCTFPSGDGIFWKHWIQTKDGQCGSPLVSTRDGFIVGIHSASNFTNTNNYFTSVPKNFMELLTNQEAQQWVSGWRLNADSVLWGGHKVFMVKPEEPFQPVKEATQL [S123K]	0.0777	–	0.0609	0.089	0.0798	0.0906	0.0813	0.0566	0.0732	0.0641	–	0.0782	0.122	–	0.066	0.0589	0.0669	0.0621
MGESLFKGPRDYNPISSSICHLTNESDGHTTSLYGIGFGPFIITNKHLFRRNNGTLVVQSLHGVFKVKDTTTLQQHLVDGRDMIIIRMPKDFPPFPQKLKFREPQREERICLVTTNFQTKSMSSMVSDISCTFPSGDGIFWKHWIQTKDGQCGSPLVSTRDGFIVGIHSASNFTNTNNYFTSVPKNFMELLTNQEAQQWVSGWRLNADSVLWGGHKVFMVKPEEPFQPVKEATQL [T129I]	0.0708	0.0643	0.0501	0.0615	0.051	–	0.0647	–	0.0719	–	0.0618	–	–	0.0694	0.0645	–	–	–
MGESLFKGPRDYNPISSSICHLTNESDGHTTSLYGIGFGPFIITNKHLFRRNNGTLVVQSLHGVFKVKDTTTLQQHLVDGRDMIIIRMPKDFPPFPQKLKFREPQREERICLVTTNFQTKSMSSMVSDWSCTFPSGDGIFWKHWIQTKDGQCGSPLVSTRDGFIVGIHSASNFTNTNNYFTSVPKNFMELLTNQEAQQWVSGWRLNADSVLWGGHKVFMVKPEEPFQPVKEATQL [T129W]	0.07	0.0668	–	0.0785	0.0483	0.079	0.0765	–	0.0644	–	0.0935	–	0.0883	0.0675	–	0.0694	0.0499	–
MGESLFKGPRDYNPISSSICHLTNESDGHTTSLYGIGFGPFIITNKHLFRRNNGTLVVQSLHGVFKVKDTTTLQQHLVDGRDMIIIRMPKDFPPFPQKLKFREPQREERICLVTTNFQTKSMSSMVSDTSCTFPSGDGSFWKHWIQTKDGQCGSPLVSTRDGFIVGIHSASNFTNTNNYFTSVPKNFMELLTNQEAQQWVSGWRLNADSVLWGGHKVFMVKPEEPFQPVKEATQL [I139S]	0.0629	0.0564	0.0565	0.0965	0.0751	0.102	–	0.0667	0.0539	0.0744	0.108	–	0.105	0.0785	–	0.0713	–	–
MGESLFKGPRDYNPISSSICHLTNESDGHTTSLYGIGFGPFIITNKHLFRRNNGTLVVQSLHGVFKVKDTTTLQQHLVDGRDMIIIRMPKDFPPFPQKLKFREPQREERICLVTTNFQTKSMSSMVSDTSCTFPSGDGIFMKHWIQTKDGQCGSPLVSTRDGFIVGIHSASNFTNTNNYFTSVPKNFMELLTNQEAQQWVSGWRLNADSVLWGGHKVFMVKPEEPFQPVKEATQL [W141M]	0.0545	0.0726	0.0599	0.0647	0.0524	0.0641	0.0584	0.0656	0.0528	0.0566	–	–	0.0444	0.0568	–	–	–	–
MGESLFKGPRDYNPISSSICHLTNESDGHTTSLYGIGFGPFIITNKHLFRRNNGTLVVQSLHGVFKVKDTTTLQQHLVDGRDMIIIRMPKDFPPFPQKLKFREPQREERICLVTTNFQTKSMSSMVSDTSCTFPSGDGIFWKRWIQTKDGQCGSPLVSTRDGFIVGIHSASNFTNTNNYFTSVPKNFMELLTNQEAQQWVSGWRLNADSVLWGGHKVFMVKPEEPFQPVKEATQL [H143R]	0.0509	0.0601	0.0585	0.0693	0.0504	0.0525	0.0638	0.0563	0.0517	–	0.0619	0.0576	0.0498	0.0528	–	0.0754	0.0664	–
MGESLFKGPRDYNPISSSICHLTNESDGHTTSLYGIGFGPFIITNKHLFRRNNGTLVVQSLHGVFKVKDTTTLQQHLVDGRDMIIIRMPKDFPPFPQKLKFREPQREERICLVTTNFQTKSMSSMVSDTSCTFPSGDGIFWKHWIQTKDGQCGSSLVSTRDGFIVGIHSASNFTNTNNYFTSVPKNFMELLTNQEAQQWVSGWRLNADSVLWGGHKVFMVKPEEPFQPVKEATQL [P155S]	0.0579	0.0589	0.0589	0.0562	0.0678	0.0542	0.0662	0.0546	0.0605	0.053	0.0519	0.0501	0.065	0.0637	–	–	0.0606	0.0537
MGESLFKGPRDYNPISSSICHLTNESDGHTTSLYGIGFGPFIITNKHLFRRNNGTLVVQSLHGVFKVKDTTTLQQHLVDGRDMIIIRMPKDFPPFPQKLKFREPQREERICLVTTNFQTKSMSSMVSDTSCTFPSGDGIFWKHWIQTKDGQCGSPLVSTRDMFIVGIHSASNFTNTNNYFTSVPKNFMELLTNQEAQQWVSGWRLNADSVLWGGHKVFMVKPEEPFQPVKEATQL [G162M]	0.0748	0.0484	–	0.0617	0.0561	0.0843	–	0.0731	–	0.0567	0.0625	–	0.0774	0.0686	0.068	–	–	–
MGESLFKGPRDYNPISSSICHLTNESDGHTTSLYGIGFGPFIITNKHLFRRNNGTLVVQSLHGVFKVKDTTTLQQHLVDGRDMIIIRMPKDFPPFPQKLKFREPQREERICLVTTNFQTKSMSSMVSDTSCTFPSGDGIFWKHWIQTKDGQCGSPLVSTRDGFIVGTHSASNFTNTNNYFTSVPKNFMELLTNQEAQQWVSGWRLNADSVLWGGHKVFMVKPEEPFQPVKEATQL [I167T]	0.0635	0.0659	0.062	0.0552	0.0606	0.044	0.0522	0.0562	0.0489	0.0694	0.0679	0.0737	0.0677	0.0486	–	0.0726	0.0654	–
MGESLFKGPRDYNPISSSICHLTNESDGHTTSLYGIGFGPFIITNKHLFRRNNGTLVVQSLHGVFKVKDTTTLQQHLVDGRDMIIIRMPKDFPPFPQKLKFREPQREERICLVTTNFQTKSMSSMVSDTSCTFPSGDGIFWKHWIQTKDGQCGSPLVSTRDGFIVGWHSASNFTNTNNYFTSVPKNFMELLTNQEAQQWVSGWRLNADSVLWGGHKVFMVKPEEPFQPVKEATQL [I167W]	0.0543	0.0608	–	0.0723	0.0798	0.0705	0.033	0.06	0.0625	0.0134	0.0709	0.0524	–	0.0552	–	–	–	0.0494
